# Article PMC10726135
# Some of the results follow. At the low end of the ranking the order means little. The protein was read in a cell extract, so binding may be indirect.
# Biological target: T1, HNF4alpha8 (COS-7 nuclear extract) (UniProt P41235-5)
# T1 sequence: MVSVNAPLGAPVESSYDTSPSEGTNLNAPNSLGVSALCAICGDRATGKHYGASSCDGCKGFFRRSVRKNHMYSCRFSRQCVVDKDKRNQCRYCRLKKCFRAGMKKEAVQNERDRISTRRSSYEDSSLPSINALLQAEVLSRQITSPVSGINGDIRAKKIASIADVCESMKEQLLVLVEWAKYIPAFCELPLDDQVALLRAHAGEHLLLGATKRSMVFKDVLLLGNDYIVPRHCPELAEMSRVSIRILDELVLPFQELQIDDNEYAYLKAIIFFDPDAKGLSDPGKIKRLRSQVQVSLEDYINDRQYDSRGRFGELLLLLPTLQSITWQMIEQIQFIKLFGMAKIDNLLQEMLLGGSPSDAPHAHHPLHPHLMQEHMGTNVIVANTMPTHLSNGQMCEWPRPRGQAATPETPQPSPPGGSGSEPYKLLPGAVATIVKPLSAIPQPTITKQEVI
# Assay: protein-binding microarray
# Settings: COS-7 nuclear extract on double-stranded Agilent 4x180k PBM; binding buffer, salt, pH and temperature not given; high values mean tight binding; double strand, one strand shown; sequences stand for … in …GCCTAGGGAGATTAGAGTATCGGTCGA
row,Sequence,binding signal (log2 normalized intensity)
1,GCTGGGGGACGCGACCTCCGGGAAAGCTAT,-1.4
2,CAGGCCTCCCTCCCTCCCCCATTAGAGGCA,4.51
3,CCAAGTTCAAAGGTTATCTGCTGGCAGAAT,4.89
4,AACCCAAAGTCTTTCTCTTTCAAGATAACA,0.326
5,AAGTCCACAAAGATAAGAAAGAATCAGCAC,-1.11
6,GCCTCGCCCGAGCTGTGCGGTAGGCATTGA,-1.42
7,TGGAGATCAGAGTCCAGCTGTGCCCCAGTC,3.23
8,GGATTTTAGCAGATAACTCCTGTGCTGGAA,-0.543
9,TCTTCACCAAATCATTTCACTTCCTTTGTT,1.13
10,CAATGCTGGAGGGACTGTGATGAAGGCAGA,-1.35
11,GAGATGAGGCTCAGACCTGACCTTTGGATT,8.85
12,GCGAACCATTTCCCATGGGACTGGCAAAGC,-1.2
13,GATCTGAGATGCTGGGTGGCATAGTTGATG,0.395
14,TAGTAGGGTCAAAGTCTGGATCCGTTAACA,4.83
15,TGCTGGAGAAAGAGGGGAAGGATGAATTTA,-1.11
16,TCAATAAATCACACGAAACAAGTAGCAGTT,-1.24
17,GTTATCTGATCAAATTCCACACCCCCCACT,5.35
18,CAGGGTCAATGTCCCCTTAGGAATAGTATC,2.54
19,AATTGAGATGAGATGGTCAAAGGTTGATGG,4.61
20,AGCAGGCACCCCGGGAGCGCCGAGCACGTC,-1.23
21,GGACAGCCTTTTTCAAGCAATGTTTGCCTC,0.144
22,GCCTCCCGGAGAGGCCCCGCCCCGTCCCCG,6.24
23,CCTTTATCGAACCTATTGTTTAATCTTTGA,3.24
24,CTATCTGCCTGCAGGAGAGAGCAAAGTCCA,8.21
25,AGGGGAGGGTGACCAGATTAATTACCCACA,-1.2

row,Sequence,binding signal (log2 normalized intensity)
1,GGGCCTCAAGGGAATCTGCTGTAATAAAGC,-1.36
2,GGGACTTTGCCCTTTTTAATGTTTCATTAA,4.68
3,GATTGACCTGACCCAGGCGAGGGTTGCTGC,-0.366
4,ATAGTGACCACCTGGTGGACCCAGCTGGTA,3.14
5,TTGGATCCAGCTCCTGATGTTTGGTCTTAT,1.37
6,ATAAACACAATTCTTTGGTACTTTGAGCCA,2.82
7,CTCCTCTCTGTAGTCCTCAGCAATAACTTA,-0.755
8,GTCTTAGTGCATTCCTTCCCAAGTGCTAGC,0.303
9,CCTTAGGATGTGGGGTATCAGGTGGTGATG,1.67
10,CAGGGCTAAAGTCAGGGGCAGGTGGAGGTG,-1.05
11,ACTTGGACCAGCTTTTGGAAGGACTTCGAA,0.929
12,TATAAAAGGCTGTCACACTGGCCTTTGCCC,5.84
13,TCCACTGCATCAGTGCTGACCTACCTGACC,2.98
14,TCATTCCTAGCCCCACCAAACTGACAGGTT,3.39
15,ATGAGACATTGTGTCAATTCCAAAGTTCAA,5.43
16,GTGAAACATCCCACTCAAAGGTCAGGGCTA,2.41
17,AACTAGCAACTTGGACCTTGATAGGAGTTA,3.62
18,TCCAGCTGCCAGGGAGACAAAGTGTCACAA,-1.18
19,TGCCGACCTCCTGACTAAAGTTCATTGCTT,2.94
20,GGCATCAGCCCCAATGGCTAAGGTCACCAT,3.1
21,CCCTTGCTCTGTTTTCTGACGCAACAGAAA,-0.887
22,GGGTCAATTAGCTTGAGCGAGACAGCGGGT,-1.01
23,TTATCTCTGTAAAAGCCAGCATTTCTGTGG,0.912
24,GAGGCCTAGGCAGTCCACAGACAAAGGCCC,-1.25
25,CCCCAGTTCCCTGGGTCGCCAAGCCGGAGG,-1.22

row,Sequence,binding signal (log2 normalized intensity)
1,TAAACCAACTATAGAAAGCCTTTGAACTGT,2.81
2,ATGAGGATACTGATAACATGAGGTAGAGGG,-1.37
3,AGATGCCGTCGGCACACACGCATGGCCGGC,-1.36
4,TCCTCTTCAACTGATTCTTGCTTCGCTCTC,-0.0208
5,TTAAATCCTATCCTAGGGTTAAAGTCTACA,5.12
6,CTTAGACAACACACCACCTGCTACTCCCTT,-1.35
7,GAACCGTTAGCAACCGGAAGTGGCTAGAGG,-1.2
8,CCACCAGCTGCTTCGGCCAGCACAGGAGGC,-1.35
9,AGGTCAAGCAATGCTGGGGACCTTTGGCCT,6.8
10,TCTACCTGACCTCCCAAAATTCTTCACATA,0.286
11,ACAATTCTTCCTTCATCTGGAGACAAATGC,1.16
12,TGTAATAAGGAGTTGTGTGATAAGGAGGGC,0.467
13,GGGGGGACGCGCTTGGGCGACGGACGCGCC,-1.35
14,CTGCAGCGCCACATTCTGAGCCAGCACTTC,-1.28
15,TAACTTACAGTGCACTTTGACCGCTCATTT,6.77
16,AGGAAACAAGGGTACCAACAGGTCCAAGGT,1.52
17,GCCAAGGAAGCGATGGGCTGGCCCTGAGCC,-1.31
18,CCTAAACAGTTACCGAGAGGTAACTCCCCC,3.13
19,ACACATGCCCCTTCCCTCCCTGCAATGGCC,3.85
20,TGCAATTTGTTCTTTCTCCAACTGCTCCTC,0.625
21,AATTCTCATGGAGGACTTTGGCCTTTTGTG,6.71
22,AACTTTGGACTTTTATGTTAAGATCAAACA,2.25
23,AGTCACTATCACCTCTCCCACCTGAATTAT,2.4
24,CATTATAAGTTGTCCTAGGAAGCAACAGAC,0.63
25,ACAGCTAGCAGGTGACAAATCCAGGATCAA,-1.23

row,Sequence,binding signal (log2 normalized intensity)
1,GGAGGGCGGGGAGTCTCCTGGGTAATCACC,-1.12
2,AGGTAAAGGCATGCTTGGCATCCCTGTGGT,-1.06
3,TCAGGCACAGCTCGACCTTTGACCTTCGGC,10.9
4,CCATGCCATGCATTTCAGAATTTTGCTCTG,-0.387
5,GAACCAAGATATGCTAACATCCCTTGCAGA,-1.31
6,TACTTACAGACTTTCAACATTATGAAATCT,-1.22
7,ACAAAAGAAAATGTGCCCTTTGGACAGAAA,5.7
8,GATAATATAGTCACTATACAACTAGGCTAC,-1.39
9,GCCACCCTCTGGCCACCAGTTATTCATGTC,0.887
10,TCAGTTTTGCCATCAGCTCCCTCCCCTGGT,3.13
11,AATAGCCCCAAATTCCTTTCAAACTGTATT,1.37
12,CATTTGCCATTTCTGAGCAAATATTTGGGG,1.53
13,CAGTTAAGCAGGTTCACATTTTTGTCATCT,1.29
14,GGCAGACAGGTTGGAGACGCAGAGAAGCAC,-1.26
15,AGCTGACAGATGGTGACCAGACTACCTCTT,-0.762
16,TCATCGCACCGGCAGGGGAGAACTTCCTCC,-1.22
17,TTCCTCCCTCCCTCTTCCCTCATATAATTT,2.56
18,ATGTTGTCCCTGCCCTTTGTCCAGGGTGAG,3.45
19,CGCCCCCAACGGGCCACGCCCTGCACCCTA,4.07
20,TTTCTAAGGACACAACAGAATGTGACTGCC,-1.01
21,GGGCCTCTGAGATAAGGGTTCAAACTCAGT,2.18
22,CATCCAAGGACTTTGTAATCATATTGATAA,2.43
23,GTGCAGTTTTTCTGCCGAAGATATTTAACC,0.707
24,AATTCCAAAGTTCAAGTAGAGCTTCACCTC,3.84
25,GAGGGCTCTGTCTGCTGGGCCTTCAGCTTG,-1.29

row,Sequence,binding signal (log2 normalized intensity)
1,GGGCAAATCTGAGGTCAAAGCTGTCAGAGA,-0.316
2,GCTCATCCATTTTCCTCTGAAAATCATTCA,-0.4
3,TTTGTCTTAGGGGGTCTGGTTTCTAGGTAG,0.743
4,ATAATTAGGTCTTTTGGTGAGTCTTTGCCC,2.27
5,CCGGGGCCTGGGCGCGCCTGCCCTTCGCTC,2.98
6,GGACACAGTTCAGGCCATCACACTCCTACC,-1.23
7,TACCAGCTGGGGTTTTACCAGGCACGCATG,-1.27
8,AAATCTGATCTTTCCTCTAAGTGCCCAAAT,1.12
9,GCTCCCATCCCCCCAAAGGCTCTCTGTTGA,4.12
10,CTCATTCCTATTCGGTGCTGACCTTTGTTC,8.62
11,CTCCTCTGCCTCCAGCTGTTGGTGACTGAC,-0.649
12,GTGTGCTCGAGGTGGACTTTCCCCCCTCAC,6.69
13,AGATGACCTTTGCCCTTGACTTTTTGTGGG,7.72
14,TGTGGTAATAAGTTGGTGGACGCTGGGGAA,0.488
15,ACTAAATGCAGCCTTGGGCAAGTTACTTAA,-1.32
16,TGGTTGCTAAGAGACAGCTCCACAGCTGGA,-1.19
17,ATGACCCAAACTTCACAAAAATGAGTGCAA,-0.806
18,ACTAAATCTCTCCTAGAGAAAGGGGCTTAG,-1.36
19,CTTTGTCCTAGTGCATGCTGGGAGTCGGGC,0.728
20,CCAGTGAGTGCAGCAGTGTACTTGAGCTTC,0.72
21,CACCAAGGCCGGAAAAGATTAGATTGCTCA,-1.25
22,TATGTCAGGCTCAGGGACCCAGCGGAATGC,-1.3
23,AGTCAGTTCCCCTGCGGACTCTGGAACCAT,4.08
24,TTTATCTCCTCCCCTTGAGACTTTAATCTC,2.61
25,GAACGCTTGTGATTACACTGGGCTCACCTG,-1.27

row,Sequence,binding signal (log2 normalized intensity)
1,ACCTTCCAGACAGAGAGGTCAGCAAATGTG,1.2
2,ACAGTTACCGAGAGGTAACTCCCCCTTCAT,2.93
3,GGGAATCAGTCCATAAATACACAATCTGAA,-1.24
4,GCTGAAGTTCCCAGCCCTTCACCAGAGCCG,-1.24
5,GGACTAAATTCTGCGGCGGAAGGACACAGA,-1.28
6,TCAACTATTTAAATAGCTCAAGCCTGTTCC,-1.14
7,CGATAAACCCAGGCAATGACTCCAAAGTTC,2.95
8,GTGTTTAATGTTTTCATTCTGATTTGCACA,0.934
9,AGGGTAGTTTGGAGATGCCGTTAAGCAGAT,-0.662
10,CCCCAGTAACAAAGGAAAGAGCTAACATAT,-1.28
11,GCTCGTGTCATCTCTGGCTAACAGGTCAGG,1.69
12,AGTCCAAAGGTCAGCCGGGGAAGGTGCAGG,5.55
13,AGACACGCCTTGCACAAATTTCAGATATCT,-1.33
14,GTAGTGGTTGAATTTCAGAGGGAAGAGGAA,-1.29
15,GCCCCACTGGGGTGGAGATGCCGTCGGCAC,-0.359
16,CTCTACTGTCCATCTTTTGCCCCTCTTATG,3.58
17,CCTTAAAGCATGACAAAATAACGAAGGCAT,-1.24
18,CTCCAGGGGACTGCCTCTTCAGGAGGCACT,-1.31
19,ATTTTGCTCTTTGTACCGTTTGAACAGCCA,3.04
20,GCTCCCCCAGTGAGCAATTCTTGTCCCTTT,3.11
